Source: PubChem BioAssay AID588579 (National Center for Advancing Translational Sciences (NCATS), 2011)
“And” between values parts separate entries of the source, which are not always exact repeats. Identical values can stand only once. Hit rate of the full screen: of about 400,000 compounds, about 2,200 (0.55%) were called active. Inconclusive means that the source gave no clear call. Such entries were picked first, then a sample of the others. Calls follow the shape of the dose curve; as a rule, active = well fitted inhibition curve with a large enough effect; inconclusive = small, poorly fitted or top-dose-only effect, or another doubt; inactive = no such curve, though single readings can be large or run the other way. Where the call is inconclusive, the potency comes from a doubtful curve fit. Some structures have more than one record in an assay (separate samples or runs), and their calls can disagree.

target: DNA polymerase kappa (Homo sapiens) (UniProt Q9UBT6); assay: qHTS for Inhibitors of Polymerase Kappa; details: purified Pol kappa, fluorescent DNA synthesis assay, 10 min; series mostly up to 107 µM
Chain of UniProt Q9UBT6 (Q9UBT6 whole entry, looked up): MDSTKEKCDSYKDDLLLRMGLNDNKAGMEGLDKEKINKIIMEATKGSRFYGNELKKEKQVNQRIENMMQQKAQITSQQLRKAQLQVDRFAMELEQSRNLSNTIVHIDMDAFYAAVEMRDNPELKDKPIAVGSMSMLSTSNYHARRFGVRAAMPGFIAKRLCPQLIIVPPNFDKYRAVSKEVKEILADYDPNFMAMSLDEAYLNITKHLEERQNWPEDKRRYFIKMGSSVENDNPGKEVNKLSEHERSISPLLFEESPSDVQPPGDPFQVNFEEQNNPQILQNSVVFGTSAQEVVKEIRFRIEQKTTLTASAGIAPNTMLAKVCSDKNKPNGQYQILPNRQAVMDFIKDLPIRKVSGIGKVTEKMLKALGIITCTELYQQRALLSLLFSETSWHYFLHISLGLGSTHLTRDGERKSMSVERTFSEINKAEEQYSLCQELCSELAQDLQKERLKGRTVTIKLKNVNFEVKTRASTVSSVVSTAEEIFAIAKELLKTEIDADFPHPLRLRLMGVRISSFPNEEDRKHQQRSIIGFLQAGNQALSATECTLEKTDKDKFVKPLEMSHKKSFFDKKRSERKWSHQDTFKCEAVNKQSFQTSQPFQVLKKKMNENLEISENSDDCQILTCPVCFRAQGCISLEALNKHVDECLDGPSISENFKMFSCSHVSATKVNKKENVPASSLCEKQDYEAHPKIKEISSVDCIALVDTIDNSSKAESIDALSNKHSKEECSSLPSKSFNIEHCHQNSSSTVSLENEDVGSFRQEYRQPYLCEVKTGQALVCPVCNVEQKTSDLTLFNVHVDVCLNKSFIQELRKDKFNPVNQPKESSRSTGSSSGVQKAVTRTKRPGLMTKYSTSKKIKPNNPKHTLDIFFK
Procedure: The processing and repair of DNA interstrand crosslinks (ICL) in eukaryotic cells are extremely complex, potentially involving multiple DNA repair and damage tolerance pathways, including homologous recombination, nucleotide excision repair, translesion synthesis (TLS), and cell cycle checkpoints.
To that end, in a collaboration between the Oregon Health & Science University and the NIH Chemical Genomics Center a 1536-well high-throughput screen was developed. This fluorescent screen was assayed against the NIH Molecular Libraries Small Molecule Repository (MLSMR) to discover inhibitors of Pol Kappa.
NIH Chemical Genomics Center [NCGC]
NIH Molecular Libraries Probe Centers Network [MLPCN]
Assay Submitter (PI): Stephen Lloyd, Oregon Health & Science University
Three microliters of reagents (buffer in column 3 and 4 as negative control and 10 nM Pol kappa in columns 1, 2, and 5-48) were dispensed into a 1536-well black solid-bottom plate. Compounds (23 nL) were transferred via Kalypsys pin tool equipped with 1536-pin array. The plates were then incubated for 15 min at room temperature, and 1 uL substrate (50 nM final concentration) were then added to start the reaction and kinetically read twice at 0 min and 10 min on the Viewlux reader
% is scaled to controls: 0 for no effect and ±100 for the full control effect; potency is read from the fitted curve at half-maximal effect; tags tell the direction and shape of the fitted curve.

SMILES | Potency | activity, negative = inhibition
O=C1NC(=O)N(Cc2ccc(F)cc2)C(=O)/C1=C\C=C\c1ccco1 | inconclusive: 56.2 µM [inhibitor, partial curve, poor fit] | –
CCCCC/C=C\C/C=C\C/C=C\C/C=C\CCCC(=O)O | active: 15.8 µM and active: 12.6 µM | –
O=C1NC(=O)N(c2cccc(Br)c2)C(=O)/C1=C/c1ccsc1 | inactive | –
O=C1NC(=O)N(Cc2ccco2)C(=O)/C1=C/C=C/c1ccco1 | active: 14.1 µM | –
N/C(=N/[N+](=O)[O-])N1CCN(C(=O)c2ccc(Cl)cc2)CC1 | inactive | –
O=[N+]([O-])c1cc(S(=O)(=O)c2ccc(O)c([N+](=O)[O-])c2)ccc1O | active: 44.7 µM | –
CC[n+]1c(-c2ccccc2)c2cc(N)ccc2c2ccc(N)cc21 | active: 35.5 µM and active: 8.91 µM and active: 20 µM | –
COc1cc2c(cc1OC)[C@@H]1C(=O)c3ccc(OC)c(CC=C(C)C)c3OC1CO2 (stereo partly drawn) | inactive | –
COC(=O)C1=C(c2ccc3ccccc3c2)C[C@@H]2CC[C@H]1N2C(=O)NCc1ccco1 | inconclusive: 89.1 µM [inhibitor, partial curve, poor fit] | –
CCN(CCCl)c1cc(CN(C)C)cc(NC(=O)c2ccc(C(=O)Nc3cc(CN(C)C)cc(N(CC)CCCl)c3)cc2)c1 | inconclusive: 1.58 µM [inhibitor, full curve, poor fit] | –
C(=C/c1ccccc1)/CN1CCN(CCOC(c2ccccc2)c2ccccc2)CC1 | inconclusive: 0.631 µM [inhibitor, partial curve, poor fit] | –
O=C1NC(=O)N(Cc2ccco2)C(=O)/C1=C\c1cccn1CCOc1ccc(Cl)cc1 | active: 28.2 µM | –
Cc1cc(/C=C2\C(=O)NC(=O)N(c3ccc(F)cc3)C2=O)c(C)n1-c1cccc(C(=O)O)c1 | inconclusive: 79.4 µM [inhibitor, single point] | –
COc1cc2c(cc1O)-c1c(O)c(OC)cc3c1[C@H](C2)N(C)CC3 | inconclusive: 1.12 µM [inhibitor, full curve] | –
CC(C)c1cc(Br)c(NC(=O)Nc2cccnc2)c(Br)c1 | inactive | –
O=c1c(O)c(-c2ccc(O)c(O)c2)oc2c(O)c(O)cc(O)c12 | active: 1.12 µM | –
CN1C(=O)/C(=C/c2cccn2-c2ccc3ccccc3c2)C(=O)NC1=S | active: 31.6 µM | –
CCC(C)N1C(=O)/C(=C\c2cnc(N(C)C)nc2)C(=O)NC1=S (stereo not drawn) | inactive | –
CC(=O)Nc1ccc(N=Cc2c(O)n(Cc3ccco3)c(=O)[nH]c2=O)cc1 | inconclusive: 89.1 µM [inhibitor, single point] | –
C[C@H](CCC(=O)O)[C@H]1CC[C@H]2[C@@H]3CC[C@@H]4C[C@H](O)CC[C@]4(C)[C@H]3CC[C@]12C | inconclusive: 39.8 µM [inhibitor, single point] | –
C=C1[C@@H]2C[C@]3(C(CC2=O)[C@]24C5C[C@H]3[C@H]2N(CC)C[C@]5(C)CC[C@@H]4O)[C@@H]1O (stereo partly drawn) | inactive | –
C[C@@H]1C[C@@H]2O[C@H]2/C=C\C=C\C(=O)Cc2c(Cl)c(O)cc(O)c2C(=O)O1 | active: 39.8 µM | –

SMILES | Potency | activity, negative = inhibition
Cc1cc(O)c2c(c1)C(=O)c1cc(O)cc(O)c1C2=O | inconclusive: 89.1 µM [inhibitor, partial curve] and inconclusive: 33.6 µM [inhibitor, single point] | –
C/C=C1/CN2CC[C@]34C(=C(C=O)[C@H]1C[C@@H]23)Nc1ccccc14 | inconclusive: 23.8 µM [inhibitor, partial curve] | –
Cn1cccc1/C=C1/C(=O)NC(=S)N(Cc2ccc(F)cc2)C1=O | inconclusive: 50.1 µM [inhibitor, partial curve, poor fit] | –
CC[C@@]1(O)C(=O)OCc2c1cc1n(c2=O)Cc2cc3c(O)cccc3nc2-1 | active: 11.2 µM and active: 29.9 µM | –
O=C1NC(=O)N(CC2CCCO2)C(=O)/C1=C/c1cccs1 (stereo not drawn) | inconclusive: 89.1 µM [inhibitor, single point] | –
O=C(N/N=C/c1c(O)n(Cc2ccc(F)cc2)c(=O)[nH]c1=O)c1ccccc1 | inactive | –
O=c1c2ccccc2nc(/C=C/c2ccc(O)cc2)n1-c1cccc(O)c1 | inconclusive: 89.1 µM [inhibitor, single point] | –
O=C1NC(=O)N(Cc2ccc(F)cc2)C(=O)/C1=C\c1ccc(N2CCCC2)cc1 | inconclusive: 89.1 µM [inhibitor, single point] | –
O=C(Oc1ccc2ccccc2c1)c1ccco1 | inconclusive: 89.1 µM [inhibitor, single point] | –
COC(=O)CCCNC(=O)CN1CC(c2ccccc2)CC1=O (stereo not drawn) | inconclusive: 31.6 µM [inhibitor, partial curve, poor fit] | –
CCOC(=O)C1CCCN(c2ccc([N+](=O)[O-])c3nonc23)C1 (stereo not drawn) | active: 25.1 µM | –
O=C(O)c1ccccc1-c1ccc(C=C2C(=O)N(c3ccccc3)C(=S)N(c3ccccc3)C2=O)o1 | inconclusive: 50.1 µM [inhibitor, partial curve, poor fit] | –
C[N+](C)(C)CCOP(=O)([O-])OC[C@H](O)CO | inconclusive: 100 µM [inhibitor, single point] | –
Cc1ccc(/C=C2\C(=O)NC(=S)N(c3cccc(F)c3)C2=O)o1 | active: 31.6 µM | –
C=CCC1C(=O)NC(=S)NC1=O | inactive | –
CC(N)(COP(=O)(O)Oc1ccccc1)C(=O)O (stereo not drawn) | – | inactive: 3.54% [at 19.4 µM]
CCCCn1c(O)c(C(C)=NCCc2ccccc2)c(=O)[nH]c1=O | inactive | –
O=C(OC1Cc2c(O)cc(O)cc2OC1c1cc(O)c(O)c(O)c1)c1cc(O)c(O)c(O)c1 (stereo not drawn) | active: 0.562 µM | –
COC(=O)c1c(Sc2ccccc2)c2ccccc2n1C | inconclusive: 89.1 µM [inhibitor, single point] | –
O=C1NC(=O)N(Cc2ccccc2)C(=O)/C1=C\c1ccco1 | active: 28.2 µM | –
CCN1C(=O)/C(=C/c2ccc3c(c2)CCN3CCCCl)C(=O)NC1=S | active: 44.7 µM | –
